Test results reported in a compilation of properties of binary mixtures (doi:10.1039/c7cp05886a).
The densities may have been worked out from excess volumes.

Test: xn = mol fraction of the nth substance listed
Settings: 298.15 K, 100 kPa

Structure (SMILES): CCCCCCCC[N+]1(C)CCCC1.O=S(=O)([N-]S(=O)(=O)C(F)(F)F)C(F)(F)F + CCCCOC(C)=O
- mass density (x2 = 0): 1289 kg/m3
- mass density (x2 = 0.4969): 1183.6 kg/m3
- mass density (x2 = 0.6954): 1107.5 kg/m3
- mass density (x2 = 0.7499): 1082.1 kg/m3
- mass density (x2 = 0.8031): 1048.1 kg/m3
- mass density (x2 = 0.8484): 1017.6 kg/m3
- mass density (x2 = 0.9016): 975.7 kg/m3
- mass density (x2 = 0.9431): 937.7 kg/m3

Structure (SMILES): CCCCCCCC[n+]1ccccc1.O=S(=O)([N-]S(=O)(=O)C(F)(F)F)C(F)(F)F + CCCCOC(C)=O
- mass density (x2 = 0): 1329 kg/m3
- mass density (x2 = 0.2556): 1279.4 kg/m3
- mass density (x2 = 0.501): 1208.7 kg/m3
- mass density (x2 = 0.6984): 1124.1 kg/m3
- mass density (x2 = 0.7522): 1091.9 kg/m3
- mass density (x2 = 0.7996): 1061.3 kg/m3
- mass density (x2 = 0.8487): 1021.8 kg/m3
- mass density (x2 = 0.8996): 984.1 kg/m3
- mass density (x2 = 0.9493): 934.9 kg/m3

Structure (SMILES): CCCCCCCCn1cc[n+](C)c1.O=S(=O)([N-]S(=O)(=O)C(F)(F)F)C(F)(F)F + CCCCOC(C)=O
- mass density (x2 = 0.2622): 1274.6 kg/m3
- mass density (x2 = 0.5001): 1205.5 kg/m3
- mass density (x2 = 0.7503): 1094.5 kg/m3
- mass density (x2 = 0.797): 1064.7 kg/m3
- mass density (x2 = 0.8503): 1026.6 kg/m3
- mass density (x2 = 0.8976): 985 kg/m3
- mass density (x2 = 0.9305): 954.6 kg/m3

Structure (SMILES): CCCCOC(C)=O + CCCC[n+]1ccn(C)c1.O=S(=O)([N-]S(=O)(=O)C(F)(F)F)C(F)(F)F
- mass density (x1 = 0.2414): 1367.9 kg/m3
- mass density (x1 = 0.481): 1275.4 kg/m3
- mass density (x1 = 0.6824): 1168.2 kg/m3
- mass density (x1 = 0.7372): 1128.1 kg/m3
- mass density (x1 = 0.7923): 1086 kg/m3
- mass density (x1 = 0.8427): 1043.9 kg/m3
